Among all 310,000 compounds or so, about 2,200 (0.71%) showed an effect of 50% or more. The effect is printed as a negative number. Some of the results follow.
Target: human ether-à-go-go-related gene (hERG) potassium channel (human, UniProt Q12809)
Experiment: primary screen, population patch clamp on CHO cells stably expressing hERG

Sequence of human ether-à-go-go-related gene (hERG) potassium channel (Q12809 whole entry, looked up): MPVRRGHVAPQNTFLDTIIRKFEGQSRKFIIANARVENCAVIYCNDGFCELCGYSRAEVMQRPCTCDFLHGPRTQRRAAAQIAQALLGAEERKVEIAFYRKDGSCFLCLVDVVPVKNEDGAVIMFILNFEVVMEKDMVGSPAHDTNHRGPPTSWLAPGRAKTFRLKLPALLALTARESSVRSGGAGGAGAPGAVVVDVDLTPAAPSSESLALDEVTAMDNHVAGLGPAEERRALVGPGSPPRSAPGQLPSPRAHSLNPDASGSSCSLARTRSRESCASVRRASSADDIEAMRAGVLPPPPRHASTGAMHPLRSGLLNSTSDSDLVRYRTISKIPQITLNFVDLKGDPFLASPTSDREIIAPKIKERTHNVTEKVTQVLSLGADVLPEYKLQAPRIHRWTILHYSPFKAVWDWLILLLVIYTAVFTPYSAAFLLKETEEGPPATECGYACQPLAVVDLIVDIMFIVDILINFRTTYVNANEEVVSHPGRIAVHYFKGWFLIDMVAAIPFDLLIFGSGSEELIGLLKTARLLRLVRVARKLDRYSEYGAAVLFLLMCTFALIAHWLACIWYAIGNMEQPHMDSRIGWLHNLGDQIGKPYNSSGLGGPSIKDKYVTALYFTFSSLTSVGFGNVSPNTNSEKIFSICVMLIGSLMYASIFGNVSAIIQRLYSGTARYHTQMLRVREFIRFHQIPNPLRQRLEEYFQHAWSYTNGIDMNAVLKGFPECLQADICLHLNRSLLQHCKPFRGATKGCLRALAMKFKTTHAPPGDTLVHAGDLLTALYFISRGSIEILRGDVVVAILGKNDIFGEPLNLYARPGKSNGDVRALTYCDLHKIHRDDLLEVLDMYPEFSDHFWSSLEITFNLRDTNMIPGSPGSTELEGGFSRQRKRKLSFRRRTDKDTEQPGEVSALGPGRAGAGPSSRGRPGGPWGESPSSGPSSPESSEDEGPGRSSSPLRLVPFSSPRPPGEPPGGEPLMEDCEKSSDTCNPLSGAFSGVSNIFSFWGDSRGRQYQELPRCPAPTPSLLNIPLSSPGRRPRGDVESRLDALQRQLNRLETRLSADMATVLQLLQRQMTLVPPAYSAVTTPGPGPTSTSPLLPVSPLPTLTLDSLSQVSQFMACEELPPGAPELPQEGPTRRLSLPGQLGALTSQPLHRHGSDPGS

| SMILES | hERG current change (%, negative = inhibition) at 1uM [%] |
| --- | --- |
| CNCCC=C1c2ccccc2C=Cc2ccccc21 | 17.8 |
| Cc1nn(CCC(=O)Nc2cccc(C#N)c2)c(C)c1S(=O)(=O)N1CCCCC1 | 10.3 |
| CN(C(=O)COC(=O)c1cc(S(=O)(=O)N2CCOCC2)ccc1Cl)C1CCS(=O)(=O)C1 (stereo not drawn) | 7.57 |
| CC(C)(C)CN1CCNC[C@H]1Cc1ccc(O)cc1 | 2.08 |
| CCN1/C(=C/c2ccc3ccccc3[n+]2CCCS(=O)(=O)[O-])C=Cc2cc(C)ccc21 | 13 |
| Nc1nncn1C(=O)c1cc(Br)ccc1Cl | 12 |
| CCCCc1nc2cc(C(=O)N3CCNC(=O)C3CC(=O)OC)ccc2o1 (stereo not drawn) | 16 |
| CCN=C(NS(=O)(=O)c1ccc(Br)cc1)c1ccc(Cl)cc1 | 10.6 |
| Cc1ccc(SCC(=O)c2c(C)[nH]c3ccccc23)cc1 | 4.12 |
| COc1ccc(C(=O)N2CCCCCC2)cc1OC1CCN(C(C)C)CC1 | 12.8 |
| O=C(NC1CC2CCC(C1)N2Cc1nnnn1Cc1ccco1)NC12CC3CC(CC(C3)C1)C2 (stereo not drawn) | 7.2 |
| C1COCCO1.Cn1c2c(c(=O)n(C)c1=O)C(c1ccccc1Cl)C(C#N)=C(N)O2 (stereo not drawn) | 6.06 |
| CC(C)(C)NC(=O)NC(=O)CSc1n[nH]c(-c2ccccc2Br)n1 | -4.61 |
| Cc1noc(C)c1S(=O)(=O)Nc1ccc(C#N)cc1 | 19 |
| COc1ccc(S(=O)(=O)N2CCOCC2)cc1NC(=O)COC(=O)C1CC1C (stereo not drawn) | 6.73 |
| Cc1cc(C)cc(NC(=O)C2C3C=CC4(O3)C2C(=O)N(CCCN2CCCCC2)C4C(=O)NC2CCCCC2)c1 (stereo not drawn) | 12.6 |
| CCC(=O)N1CC(=O)Nc2ccc(Cl)cc2C1c1ccc(F)cc1 (stereo not drawn) | 4.47 |
| O=C(COC(=O)CCSc1ccc(Cl)cc1)Nc1ccc(F)cc1 | 9.63 |
| CC(=O)CC(c1ccccc1)c1c([O-])c2ccccc2oc1=O.[Na+] (stereo not drawn) | 17 |
| COc1ccc(OC)c(C2NC(=O)NC(C)=C2C(=O)Nc2ccc(C)cc2C)c1 (stereo not drawn) | -13.8 |
| CO/N=C/CC(=O)c1ccc([N+](=O)[O-])c(CS(=O)(=O)c2ccc(Cl)cc2)c1 | -1.85 |
| CC(=O)N1CCc2cc(S(=O)(=O)N3CCOCC3)ccc21 | 11.3 |
| O=C(c1ccccc1)N1CCN(c2ccc([N+](=O)[O-])cc2-n2cccc2)CC1 | 12.1 |

| SMILES | hERG current change (%, negative = inhibition) at 1uM [%] |
| --- | --- |
| O=C(CSCC(=O)NC1CC1)Nc1ccccc1 | 0.305 |
| O=C(NCCc1ccc(C(F)(F)F)cc1)C1CCC(=O)N(CCCc2ccccc2)C1 (stereo not drawn) | -8.21 |
| Cc1c(Br)c([N+](=O)[O-])nn1CCCC(=O)NC(C)c1ccccc1 (stereo not drawn) | 1.63 |
| O=C(COC(=O)c1cccc(Br)c1)NCCNC(=O)COC(=O)c1cccc(Br)c1 | 20.7 |
| Cc1oc2nc(SCC(=O)NC3CCCCC3)nc(N)c2c1C | -6.37 |
| N#C/C(=C(/O)c1ccco1)c1nc2ccccc2[nH]1 | 13.9 |
| CCCCOCP(=O)(CC)COCCCC | 11.5 |
| COc1cc(C(=O)Nc2ccc(C)cc2)c(-n2cnnn2)cc1OC | 6.57 |
| O=C(NC1CCCCC1)C(c1ccccc1F)N(Cc1ccco1)C(=O)c1ccccn1 (stereo not drawn) | 10 |
| Cc1nnc(SCCn2c(N3CCCCCC3)nc3c2c(=O)[nH]c(=O)n3C)s1 | 1.51 |
| COC(=O)CC1(C(=O)OC)Oc2ccc(Br)cc2C(=O)N1c1ccc(Br)cc1Cl (stereo not drawn) | 10.2 |
| CN(C)S(=O)(=O)c1cccc(NC(=S)N2CCc3ccccc32)c1 | 18.2 |
| Cc1ccc(N(C(=O)CNC(=O)c2ccco2)C(C(=O)NC2CCCCC2)c2cccnc2)c(C)c1 (stereo not drawn) | -30 |
| Nc1nnc(Cc2ccc(F)cc2)s1 | 6.63 |
| CNS(=O)(=O)c1cccc(C(=O)OCC(=O)Nc2ccc(-c3nc4ccc(C)cc4s3)cc2)c1 | 10.5 |
| COc1ccc(NC(=O)CSc2cn[nH]n2)cc1OC | 19.8 |
| CCN(CC)c1c([N+](=O)[O-])c(=O)n(CC)c2ccccc12 | 2.29 |
| COc1ccc(/C(N)=N/OC(=O)c2ccco2)cc1 | 8.49 |
| CCCC(=O)Nc1ccc(C(=O)N2CCCC2)cc1 | -3.99 |
| C/C(=N/NC(=O)c1ccco1)c1cccnc1 | 16 |
| CCOC(=O)c1c(NC(=O)C2=C(C)NC(=S)NC2c2ccc(C)cc2)sc(C)c1C (stereo not drawn) | 0.74 |
| COc1ccccc1N1C(=O)NC(=O)/C(=C/c2ccc3c4c(cccc24)CC3)C1=O | 9.58 |

Reference: paper PMC4336329 (PLoS ONE, 2015)
